These results are taken from patent publication US20230016112A1 (IBIO, published 2023).

B1: YU391-B12 (antibody)
scFv: QMQLVQSGAEVKKPGSSVKVSCKASGGTFSSYAISWVRQAPGQGLEWMGGIIPIFGTANYAQKFQGRVTITADESTSTAYMELSSLRSEDTAVYYCAREMYYYYGMDVWGQGTTVTVSS[letters of about 100 residues not shown]
notes: Tested as full-length human IgG1
B2: YU394-D08 (antibody)
scFv: QVQLGESGAEVKKPGSSVKVSCKASGGTFSSYAISWVRQAPGQGLEWMGWISAYNGNTNYAQKLQGRVTMTTDTSTSTAYMELRSLRSDDTAVYYCAREPLRYYYYYGMDVWGQGTTVTVSS[letters of about 100 residues not shown]
notes: as for B1
B3: YU389-B11 (antibody)
scFv: PGSSVKVSCKASGGTFSSYAISWVRQAPGQGLEWMGGIIPIFGTANYAQKFQGRVTITADESTSTAYMELSSLRSEDTAVYYCAREMYYYYGMDVWGQGTTVTVSS[letters of about 100 residues not shown]FGQGTKLEIK
notes: as for B1

The target in this experiment is T1, full-length CD25 (human, UniProt P01589 22-186, limits assumed).
T1 construct: The assays used soluble 'full-length CD25'; also called Hu CD25; IL-2 receptor alpha chain
T1 chain: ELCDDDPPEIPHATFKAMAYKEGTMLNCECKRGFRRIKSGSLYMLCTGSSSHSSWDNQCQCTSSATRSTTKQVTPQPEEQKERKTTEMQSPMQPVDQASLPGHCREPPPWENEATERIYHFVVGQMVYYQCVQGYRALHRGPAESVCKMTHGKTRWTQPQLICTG
Nature of the experiment: Octet biolayer interferometry, human IgG1 against CD25.
Turning to B1, the Kd worked out at 45.8 nM.

As to B2, the Kd is 44.3 nM.

The molecule B3 had a Kd of 142 nM.
